This passage reports survival results from PubChem BioAssay AID463173 (ICCB-Longwood Screening Facility, Harvard Medical School, 2010).

In all, about 52,000 compounds went through this assay and about 4,300 (8.3%) were called active. No stated cut-off is given here; in the data, active means survival mostly below about 52% (no sharp cut-off); inactive means mostly above about 56%. Some of the results follow.

The assay deals with DeltatarO mutant. Kind of assay: growth inhibition of S. aureus wild type versus tarO mutant, primary screen, teichoic acid synthesis inhibitors, RN4220, OD600 (AID 463173). The settings on record: OD600, 18 h, active compounds read low, screened at 18.75 µg/mL (by protocol).
With `CCCc1nnc(NC(=O)c2cc(=O)c3ccccc3o2)s1`, the survival was inactive: 63%. The value for `COc1ccc(N2CCN(C(=O)C3CCCN(C(=O)c4cc5sccc5n4C)C3)CC2)cc1` (stereo not given) was inactive: 115%. Under `CCCCNC(=O)CN1C(=O)c2cccnc2Sc2ccccc21` stands inactive: 72%.

For the compound `CC1=C(C(=O)Nc2cccnc2)C(c2cccc(F)c2)n2nc(SCc3ccccc3F)nc2N1` (stereo not given), the survival is inactive: 62%.

With `O=C(CSc1nc(=O)[nH]c2c1CCCC2)NCc1ccccc1Cl`, the survival is inactive: 124%.

Take `COc1ccc(C)cc1NC(=O)c1cc(S(=O)(=O)N2CCOCC2)cn1C`: the survival was inactive: 79%. In the case of `O=C(O)CCNc1ccc2c(c1)OCCO2`, the survival was inactive: 86%.

`O=C1CCCc2nc(N3CCOCC3)sc21`: the survival is inactive: 93%. The value for `CCNC(=O)c1c(NC(=O)Cc2coc3ccc(CC)cc23)sc2c1CCCC2` was inactive: 79%; that for `CC(=O)N1CCCc2cc(S(=O)(=O)N3CCN(c4ccccc4F)CC3)ccc21` was inactive: 73%; that for `COc1cccc(C2C(C(=O)Nc3ccc(Cl)cc3)=C(C)Nc3nc4ccccc4n32)c1OC` (stereo not given) was inactive: 126%. The value for `Cc1oc2ncn(CC(C)C)c(=O)c2c1C(=O)N(CCN(C)C)Cc1ccccc1` was inactive: 97%; that for `COc1cccc(-n2cnc3scc(-c4cccs4)c3c2=O)c1` was inactive: 87%; that for `CCCCNC(=O)c1ccc2c(c1)N(CC)C(=O)c1ccccc1S2` was inactive: 102%.

On to `Cc1ccc2c(c1)N(C(=O)N1CCC(C(=O)NCc3ccccc3C)CC1)CC(C)O2` (stereo not given), for which the survival was inactive: 74%.

Consider `CCCCNC(=O)c1c(-c2ccccc2)c(-c2ccccc2)nn(C)c1=O`, for which the survival is inactive: 46%.

On to `Cc1ccc(Cl)cc1N1CCN(C(=O)CN2C(=O)COc3ccc(S(=O)(=O)N4CCCCCC4)cc32)CC1`, for which the survival is inactive: 60%. The value for `CCN(Cc1ccccc1)C(=O)c1cc(-c2ccccc2)n[nH]1` was inactive: 91%; that for `COc1ccc(S(=O)(=O)NCCSc2nnnn2-c2ccccc2)cc1OC` was inactive: 127%. Under `Cc1c(C)n(Cc2ccccc2)c2ccc(C(=O)N3CCN(c4ccc(F)cc4)CC3)cc12` stands inactive: 94%; under `CC(C)CCNC(=O)c1ccc2c(c1)NC(=O)C(C(C)C)N2` (stereo not given), inactive: 51%; under `Cc1oc2ccc(O)c(CN3CCOCC3)c2c1C(=O)Nc1cccc(C(F)(F)F)c1`, inactive: 59%. Under `Cn1cnc(S(=O)(=O)N2CCCC(C(=O)NCc3ccc(Cl)cc3)C2)c1` (stereo not given) stands inactive: 102%.

Consider `CCN(CC)S(=O)(=O)c1ccc2c(c1)N(CC(=O)N1CCN(c3ccc(OC)cc3)CC1)C(=O)CO2`, for which the survival was inactive: 67%. The value for `Cc1ccc(NC(=O)N2CCCC2C(=O)NCC2CCCCC2)cc1` (stereo not given) was inactive: 86%; that for `Cc1ccccc1Nc1c(-c2cccc(Cl)c2)nc2ncccn12` was inactive: 92%; that for `COc1cc2[nH]c(=O)n(Cc3ccc(C(=O)N4CCN(c5ccc(Cl)cc5)CC4)cc3)c(=O)c2cc1OC` was inactive: 77%. Under `O=C(Nc1cccc(Cl)c1Cl)c1ccc2c(c1)N(Cc1cccc(Cl)c1)C(=O)c1ccccc1S2=O` (stereo not given) stands inactive: 80%.

Consider `Cc1ccc(C)c(NC(=O)Cn2nc(C)c3nn(-c4ccc(Cl)cc4)c(C)c3c2=O)c1`, for which the survival was inactive: 103%. The value for `CCn1c2ccccc2c2cc(CN3CCN(Cc4cc(OC)c(O)c(OC)c4)CC3)ccc21` was active: 43%; that for `COc1ccc(N2CCN(c3ccc(-c4nc(-c5ccccc5)no4)cc3[N+](=O)[O-])CC2)cc1` was inactive: 74%. With `COc1ccc(CNC(=O)CCS(=O)(=O)c2cc(Br)cc3c2N(C(C)=O)C(C)C3)cc1` (stereo not given), the survival is inactive: 92%. With `CCOc1ccccc1NC(=O)CCCc1nc(-c2ccccc2Cl)no1`, the survival is active: 38%. The value for `CCOc1ccc(CCNC(=O)c2cc3c(=O)n(CC)c4ccccc4c3s2)cc1OCC` was inactive: 60%; that for `CCc1cccc(NC(=O)CSc2nncn3c2cc2sccc23)c1` was inactive: 58%; that for `CCOc1ccc(CCNC(=O)Cn2c(-c3cccs3)cc3cc(F)ccc32)cc1OCC` was inactive: 68%. The value for `CCc1cccc(CC)c1NC(=O)Cn1c(=O)c(-c2cc(C)ccc2NC(C)=O)nc2ccccc21` was inactive: 79%.

As for `CCc1ccc(CN(Cc2ccco2)c2cnc(S(C)(=O)=O)nc2C(=O)Nc2c(C)cccc2C)cc1`, the survival is active: 36%. The value for `CCCc1cc(N2CCN(c3ccccc3)CC2)n2cnnc2n1` was inactive: 67%; that for `Cn1c(=NC(=O)c2ccc(S(=O)(=O)N3CCCC3)cc2)sc2cc(F)ccc21` was inactive: 168%; that for `CCc1ccccc1NCc1nnc2n1CCCCC2` was inactive: 94%. Under `Cn1c(CSc2nc3ccccc3s2)nnc1SCC(=O)NCCCN1CCOCC1` stands inactive: 87%; under `O=C1COc2cc(S(=O)(=O)CCC(=O)N3CCN(c4ccccc4F)CC3)c(Cl)cc2N1`, inactive: 87%. In the case of `Cc1ccccc1CNc1nc(N(C)C)nc2c1cnn2C`, the survival is inactive: 72%. The value for `O=C1CC(Sc2ccccc2)C(=O)N1c1ccccc1` (stereo not given) was inactive: 92%; that for `Cc1ccc(NC(=O)C2CCN(S(=O)(=O)c3ccc4[nH]c(=O)ccc4c3)CC2)cc1C` was inactive: 73%. On to `CN(c1ccccc1)C(c1ccc(F)cc1)c1nnnn1C1CCCC1` (stereo not given), for which the survival was inactive: 79%. The value for `CCCCOc1ccc(C(=O)NCCc2sc(-c3ccc(OC)c(OC)c3)nc2C)cc1` was inactive: 72%. The value for `CCOc1ccc(CNC(=O)c2ccc3c(c2)N(CC)CCS3)cc1` was inactive: 74%; that for `O=C(Nc1cccc(O)c1)c1cc2nc(-c3ccc(Br)cc3)cc(C(F)(F)F)n2n1` was inactive: 120%; that for `CC1(C)NCCNC1=O` was inactive: 83%. Under `COc1ccc(N2CCN(C(=O)CSc3c4c(nc5ccc(Cl)cc35)CCCC4)CC2)cc1` stands active: 35%; under `CCOc1ccccc1NC(=O)C1CCN(S(=O)(=O)c2cc(Br)cc3c2N(C(C)=O)CC3)CC1`, inactive: 69%; under `COc1cccc(CN2CCCN(CC(=O)Nc3ccc4c(c3)OCCO4)S2(=O)=O)c1`, inactive: 74%. Turning to `COc1cccc(N(Cc2nnc3n2CCCCC3)C(=O)Nc2ccccc2)c1`, the survival was inactive: 126%. The value for `CCNC(=S)N(Cc1ccccc1)Cc1nc2ccccc2c(=O)[nH]1` was inactive: 45%; that for `Cc1nc2nc(NC(=O)c3ccc(C(C)(C)C)cc3)[nH]n2c(=O)c1Cl` was inactive: 98%. For the compound `CCC(CC)C(=O)Nc1ccc2nc(SCc3ccccc3)sc2c1`, the survival was inactive: 81%. Under `COc1ccc2c(CC(=O)Nc3ccc(C)cc3)coc2c1` stands inactive: 73%. The value for `CC1CCCN(c2ccc(C(=O)NCCc3ccccc3)cn2)C1` (stereo not given) was inactive: 84%.

In the case of `Cc1cccc(Nc2ncc(NC(=O)c3cccc(F)c3)c(Nc3cccc(C)c3)n2)c1`, the survival is inactive: 72%.

For the compound `COc1cccc(CCNC(=O)c2cnc3sc(N4CCCCCC4)nn3c2=O)c1`, the survival is inactive: 84%.

For `Cc1ccc(-n2nc3c(=O)n(CC(=O)NC(C)C)nc(C)c3c2C)cc1`, the survival was inactive: 70%. Under `COc1ccc(S(=O)(=O)c2c(Nc3c(C)cccc3C)sc(C(=O)c3ccc4c(c3)OCO4)c2N)cc1` stands inactive: 80%; under `COc1cc(NC(=O)CC2C(=O)N(c3cccc(C)c3)C(=O)N2Cc2ccco2)cc(OC)c1` (stereo not given), inactive: 101%.

As for `CCOc1cc(CNC(=O)c2ccccc2NC(=O)c2nsc3ccccc23)ccc1OC`, the survival is inactive: 82%. As for `CCOc1ccc(NC(=O)Cn2cc(C(=O)c3cccs3)c3ccccc32)cc1`, the survival was inactive: 51%. The value for `CC(OC(=O)c1cc2sccc2n1C)C(=O)NCC1CCCO1` (stereo not given) was inactive: 99%.

On to `CCOc1cccc(CC(=O)NCc2ccc3c(c2)CCN3C(=O)c2ccc(F)cc2)c1OCC`, for which the survival is inactive: 89%. The value for `COc1ccc(NC(=O)CSC2=Nc3ccccc3C3=NC(CC(=O)NCc4ccco4)C(=O)N23)cc1` (stereo not given) was inactive: 69%; that for `Cc1nc2c(cnn2-c2ccccc2)c(=O)n1-c1ccccc1` was inactive: 73%. Under `O=C(Cn1c(-c2cccs2)cc2ccccc21)N1CCN(c2ccccc2F)CC1` stands inactive: 90%; under `O=C(CSc1nnc(-c2ccncc2)n1-c1ccccc1)Nc1ccc(Cl)c(Cl)c1`, inactive: 99%. The value for `Cc1cc(C)nc(N(C#N)CC(=O)c2ccccc2)n1` was inactive: 114%; that for `Clc1ccc(CCNc2nc3ccccc3c3nc(-c4ccccc4)nn23)cc1` was active: 29%. Turning to `CCN(C(=O)CSc1nnc(-c2cc(OC)c(OC)c(OC)c2)o1)c1ccccc1`, the survival is inactive: 84%.

For the compound `CCc1ccc(Nc2nc(C)cc(C)c2C(N)=O)cc1`, the survival was inactive: 83%. Under `Cc1ccccc1CNC(=O)c1cccc(NC(=O)N2CCSc3ncccc32)c1` stands inactive: 120%; under `CCOC(=O)c1c(S(=O)(=O)N2CCCC(C(=O)Nc3cccc(C#N)c3)C2)c(C)n(C)c1C` (stereo not given), inactive: 67%. The value for `CC(Oc1ccccc1)C(=O)Nc1ccc(OCc2cc(=O)n3ccsc3n2)cc1` (stereo not given) was inactive: 76%; that for `OC(CNc1ccccn1)COc1ccc(OCC(O)CNc2ccccn2)cc1` (stereo not given) was inactive: 79%; that for `Cc1ccc(Cl)cc1NC(=O)C1CCCN(S(=O)(=O)c2cccc3cccnc23)C1` (stereo not given) was inactive: 62%. The value for `COc1ccccc1CNC(=O)CSc1nc2nc(C)c(Cc3ccccc3Cl)c(C)n2n1` was active: 46%. Consider `COc1ccc(C(=O)NCCN=C2NS(=O)(=O)c3ccccc32)cc1`, for which the survival was inactive: 93%. The value for `COc1ccc(N2C(=O)CS(=O)(=O)C23C(=O)N(Cc2ccc(F)cc2)c2ccc(C)cc23)cc1` (stereo not given) was inactive: 71%; that for `CCC(=O)N1CCc2cc(Br)cc(S(=O)(=O)N3CCCC(C(=O)Nc4cccc(C)c4C)C3)c21` (stereo not given) was inactive: 95%. Regarding `CC(CNC(=O)CN1C(=O)COc2ccc(S(=O)(=O)N3CCCCCC3)cc21)c1ccccc1` (stereo not given), the survival is inactive: 73%.

For `COc1ccc(CCNC(=O)c2cccc(-n3cnc4cccnc43)c2C)cc1OC`, the survival was inactive: 99%. `Cc1cc(C)c2c(=O)[nH]c(SCC(=O)NCCc3ccccc3)nc2n1`: the survival is inactive: 61%. The value for `CCCCNC(=O)c1nn(-c2ccc(C)cc2)c(=O)n(C)c1=O` was inactive: 78%.
